# In the supplement of paper PMC8728848:
# This is one part of the list.
# B1: DETC sTCR (Mus musculus) (protein)
# chain: LDVYLEPVAKTFTVVAGDPASFYCTVTGGDMKNYHMSWYKKNGTNALFLVYKLNSNSTDGGKSNLKGKINISKNQFILDIQKATMKDAGTYYCGSDIGGSSWDTRQMFFGTGIELFVEPKSQPPAKPSVFIMKNGTNVACLVKDFYPKEVTISLRSSKKIVEFDPAIVISPSGKYSAVKLGQYGDSNSVTCSVQHNSETVHSTDFEPYANSFNNEKLPEPENDTQISEPCSSADLVPRGSTTAPSAQLKKKLQALKKKNAQLKWKLQALKKKLAQHHHHHHDSWISQDQLSFTRRPNKTVHISCKLSGVPLHNTIVHWYQLKEGEPLRRIFYGSVKTYKQDKSHSRLEIDEKDDGTFYLIINNVVTSDEATYYCACWDSSGFHKVFAEGTKLIVIPSDKRLDADISPKPTIFLPSVAETNLHKTGTYLCLLEKFFPDVIRVYWKEKDGNTILDSQEGDTLKTNDTYMKFSWLTVPERAMGKEHRCIVKHENNKGGADQEIFFPSIKKVAVSTKPTTCSSADLVPRGSTTAPSAQLEKELQALEKENAQLEWELQALEKELAQLNDIFEAQKIEW
# Experiments:
# Experiment in all cases: glycan array binding signal (z-score within array); higher = stronger binding
# Details in all cases: glycan notation: IUPAC condensed, linker removed
# [1] = biological target: Fuc(a1-2)[Gal(a1-3)]Gal(b1-4)GlcNAc(b1-2)Man(a1-3)[Fuc(a1-2)[Gal(a1-3)]Gal(b1-4)GlcNAc(b1-2)Man(a1-6)]Man(b1-4)GlcNAc(b1-4)GlcNAc
# Outline: (§1)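 Columns mapping to the same glycan were averaged after glycan names were converted to IUPAC-condensed notation. The data come from 3228 arrays in the Consortium for Functional Glycomics database, limited to those with an available protein sequence. Binding is reported as a within-array Z-score averaged across arrays of one protein sequence and across linkers.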
# [2] = biological target: Fuc(a1-2)[Gal(a1-3)]Gal(b1-4)[Fuc(a1-3)]GlcNAc
# Outline: as §1
# [3] = biological target: Fuc(a1-2)[Gal(a1-4)]Gal(b1-4)GlcNAc
# Outline: as §1
# [4] = biological target: Fuc(a1-2)[GalNAc(a1-3)]Gal
# Outline: as §1
# [5] = biological target: Fuc(a1-2)[GalNAc(a1-3)]Gal(b1-3)GlcNAc
# Outline: as §1
# [6] = biological target: Fuc(a1-2)[GalNAc(a1-3)]Gal(b1-3)GlcNAc(b1-2)Man(a1-3)[Fuc(a1-2)[GalNAc(a1-3)]Gal(b1-3)GlcNAc(b1-2)Man(a1-6)]Man(b1-4)GlcNAc(b1-4)GlcNAc
# Outline: as §1
# [7] = biological target: Fuc(a1-2)[GalNAc(a1-3)]Gal(b1-4)Glc
# Outline: as §1
# [8] = biological target: Fuc(a1-2)[GalNAc(a1-3)]Gal(b1-4)GlcNAc
# Outline: as §1
# [9] = biological target: Fuc(a1-2)[GalNAc(a1-3)]Gal(b1-4)GlcNAc(b1-2)Man(a1-3)[GalNAc(a1-3)[Fuc(a1-2)]Gal(b1-4)GlcNAc(b1-2)Man(a1-6)]Man(b1-4)GlcNAc(b1-4)GlcNAc
# Outline: as §1
# [10] = biological target: Fuc(a1-2)[GalNAc(a1-3)]Gal(b1-4)GlcNAc(b1-3)Gal(b1-4)GlcNAc
# Outline: as §1
# [11] = biological target: Fuc(a1-2)[GalNAc(a1-3)]Gal(b1-4)GlcNAc(b1-3)Gal(b1-4)GlcNAc(b1-3)Gal(b1-4)GlcNAc
# Outline: as §1
# [12] = biological target: Fuc(a1-2)[GalNAc(a1-3)]Gal(b1-4)[Fuc(a1-3)]GlcNAc
# Outline: as §1
# [13] = biological target: Fuc(a1-2)[GalNAc(a1-4)]Gal(b1-4)GlcNAc
# Outline: as §1
# [14] = biological target: Fuc(a1-2)[GalNAc(b1-3)]Gal
# Outline: as §1
# Fuc(a1-3)GlcNAc = biological target: Fuc(a1-3)GlcNAc
# Outline: as §1
# [15] = biological target: Fuc(a1-3)[Gal(b1-4)]Glc6S
# Outline: as §1
# [16] = biological target: Fuc(a1-3)[Gal(b1-4)]GlcNAc
# Outline: as §1
# [17] = biological target: Fuc(a1-3)[Gal(b1-4)]GlcNAc(b1-2)Man(a1-3)[Fuc(a1-3)[Gal(b1-4)]GlcNAc(b1-2)Man(a1-6)]Man(b1-4)GlcNAc(b1-4)GlcNAc
# Outline: as §1
# [18] = biological target: Fuc(a1-3)[Gal(b1-4)]GlcNAc(b1-2)Man(a1-6)[Gal(b1-4)GlcNAc(b1-2)Man(a1-3)]Man(b1-4)GlcNAc(b1-4)GlcNAc
# Outline: as §1
# [19] = biological target: Fuc(a1-3)[Gal(b1-4)]GlcNAc(b1-3)Gal(b1-3)[Fuc(a1-4)]GlcNAc
# Outline: as §1
# [20] = biological target: Fuc(a1-3)[Gal(b1-4)]GlcNAc(b1-4)Gal(b1-4)[Fuc(a1-3)]GlcNAc
# Outline: as §1
# [21] = biological target: Fuc(a1-3)[Gal(b1-4)]GlcNAc(b1-4)Gal(b1-4)[Fuc(a1-3)]GlcNAc(b1-4)Gal(b1-4)[Fuc(a1-3)]GlcNAc
# Outline: as §1
# [22] = biological target: Fuc(a1-3)[Gal(b1-4)]GlcNAc6S
# Outline: as §1
# [23] = biological target: Fuc(a1-3)[Gal3S(b1-4)]Glc6S
# Outline: as §1
# [24] = biological target: Fuc(a1-3)[Gal3S(b1-4)]GlcNAc
# Outline: as §1
# [25] = biological target: Fuc(a1-3)[Gal3S(b1-4)]GlcNAc6S
# Outline: as §1
# [26] = biological target: Fuc(a1-3)[GalNAc(b1-4)]GlcNAc
# Outline: as §1
# Fuc(a1-4)GlcNAc = biological target: Fuc(a1-4)GlcNAc
# Outline: as §1
# Fuc(b1-3)GlcNAc = biological target: Fuc(b1-3)GlcNAc
# Outline: as §1
# Gal(a1-2)Gal = biological target: Gal(a1-2)Gal
# Outline: as §1
binder,measurement,setting,value
B1,glycan array binding signal (z-score),[1],-0.402
same,glycan array binding signal (z-score),[2],-0.517
same,glycan array binding signal (z-score),[3],-0.549
same,glycan array binding signal (z-score),[4],-0.566
same,glycan array binding signal (z-score),[5],-0.522
same,glycan array binding signal (z-score),[6],-0.395
same,glycan array binding signal (z-score),[7],-0.028
same,glycan array binding signal (z-score),[8],2.43
same,glycan array binding signal (z-score),[9],-0.566
same,glycan array binding signal (z-score),[10],-0.268
same,glycan array binding signal (z-score),[11],-0.187
same,glycan array binding signal (z-score),[12],-0.576
same,glycan array binding signal (z-score),[13],0.223
same,glycan array binding signal (z-score),[14],-0.646
same,glycan array binding signal (z-score),Fuc(a1-3)GlcNAc,-0.519
same,glycan array binding signal (z-score),[15],-0.581
same,glycan array binding signal (z-score),[16],-0.253
same,glycan array binding signal (z-score),[17],-0.52
same,glycan array binding signal (z-score),[18],2.3
same,glycan array binding signal (z-score),[19],-0.531
same,glycan array binding signal (z-score),[20],-0.473
same,glycan array binding signal (z-score),[21],0.623
same,glycan array binding signal (z-score),[22],-0.619
same,glycan array binding signal (z-score),[23],-0.071
same,glycan array binding signal (z-score),[24],-0.473
same,glycan array binding signal (z-score),[25],-0.478
same,glycan array binding signal (z-score),[26],0.649
same,glycan array binding signal (z-score),Fuc(a1-4)GlcNAc,-0.607
same,glycan array binding signal (z-score),Fuc(b1-3)GlcNAc,0.011
same,glycan array binding signal (z-score),Gal(a1-2)Gal,-0.569
